In the supplement of paper PMC11417369:
± gives the standard deviation of the averaged measurements. This is one part of the list.

These sequences were tested on PfAP2-G AP2 domain (GST-tagged) (assay: gcPBM binding intensity (ln(normalized median fluorescence intensity)); higher = stronger DNA binding).
In short: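 The binding buffer was 1× PBS containing 1% milk, 0.2 mg/ml BSA, 0.5% salmon testes DNA and 0.03% Triton X-100. In it, GST-tagged P. falciparum DNA-binding domains expressed in E. coli were applied for 1 h to an Agilent 4 × 180k array of primer-extended double-stranded 36-bp intergenic genomic probes plus negative controls. Binding intensity, read with Alexa488 anti-GST antibody and a 488 nm scan, is the highest Masliner-normalised natural-log median intensity across replicate spots of either probe orientation.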

Sequence | gcPBM binding intensity (ln)
TAAGTTATATGTATATGTACTTATATATATATATAT [XGTACX_site5402] | 11.1 ± 0.79
ATTAAAAAAATTAAAAGTACACATATTTCAATGATA [XGTACX_site5606] | 11.6 ± 0.92
TAAAAAAAAAAAACAAGTACATATATAAATATATAT [XGTACX_site7537] | 11.2 ± 1.1
TTTTTATTTAATAATATATTAATCATATAAATAAAT [GTGCAC_negctrl_site210] | 9.48 ± 0.11
TATTTAATTACATGAACACACATTATGTATTTTTAA [CACACA_site2962] | 9.855 ± 0.064
GTATGTTTGTTATGCACACAAATGCATCTTATTTCC [CACACA_site2690] | 10.3 ± 0.18
TTTAATTATAAGATAACACACAAAAAAAATAAAATA [CACACA_site254] | 10.1 ± 0.21
TTTATATAAAAAAATTGTACATATTTATTATAAACA [XGTACX_site2124] | 11.1 ± 0.78
TGTATGCATATTTGATGTACGCACATATACTAATTT [XGTACX_site3159] | 11.5 ± 0.83
TATATTCTTATTATTGCATGCTGCACGAAGATTTTC [TGCATGCA_site831] | 9.88 ± 0.028
ATAATAAATAAAATAACACACATATATAGATATATA [CACACA_site6224] | 9.84
TTTTCATTAAATATATATGCATACCATATGTACATT [GTGCAC_negctrl_site539] | 10.9 ± 0.74
TATGTAAAGAGTAAGGGTACATGTATAATACGGCTC [XGTACX_site1283] | 11.2 ± 0.64
AATTTCAAATTGTATGTGCACATGTAGAAGTACTTT | 11.4 ± 0.98
GTGCCTTTAAAAAAAAGTACAAAAAAGAACGAATTA [XGTACX_site3714] | 11.5 ± 0.97
AAAAAAAAAAAAAGCACACACACATATGAGTATATA [CACACA_site4682] | 10.08 ± 0.099
TATATATATATATATTGTACATTTTTTTTTTTTTTT [XGTACX_site7891] | 10.8 ± 0.74
AAATACTATATCAAGCGTACTTATTTCATGGTAATA [XGTACX_site7878] | 11.3 ± 0.72
TTTAAAATATTTTCTTGTACGAAGGAACATTTCTTA [XGTACX_site4013] | 10.6 ± 0.43
TCGACAAAGGCATATACACACATTTGTAACATAAAT [CACACA_site4471] | 9.97 ± 0.014
GTTTTTTTGTTTTAGTGTACCTAAAACTGCATGTAG [XGTACX_site294] | 11.4 ± 0.7
TTATGGATAAATAAATGTACGTTAAGATAACACAAA [XGTACX_site4208] | 11 ± 0.7
ATTTCTCTATAGTAATGTACAAAAAAAAGGAAAAAG [XGTACX_site2757] | 10.8 ± 0.46

Sequence | gcPBM binding intensity (ln)
ACATAAAATAAATATACACACATATGTATTTATTAT [CACACA_site5648] | 9.85 ± 0.057
AAACCGAATTTACATGAATGTAAATTATGTTGTTTT [CACACA_negctrl_site1834] | 9.53 ± 0.13
CAAGAATAAAAATACAAGCACACATGTATGAAATAT [CACACA_site3214] | 10.08 ± 0.014
ATTTCATTAAAGATTACATGCAATTCTATATTATTT [TGCATGCA_site260] | 9.77 ± 0.13
AATTAATTTATTTTATAAATAGTTAGATCGTCATAA [GTGCAC_negctrl_site660] | 9.9 ± 0.13
ACTTTCAAGGATGTACGTACATATGTATTTTATAAC [XGTACX_site6714] | 11.7 ± 0.91
AACATAAATTACTTTTTACACACTAATATAAAATAC [CACACA_site8297] | 10.2 ± 0.28
AATTGCTCGATATATGCACACAGTTTTGTTATTTTT [CACACA_site8465] | 10.1 ± 0.057
AAAACACGCGGACACACACACACACGCCCACATATA [CACACA_site7105] | 11.5 ± 0.89
AAAAAAAAAACAAATACACACGCACCCAAAAAAAAA [CACACA_site8166] | 10.5 ± 0.26
TTTTATATATATATATATATATATATATATGTATAT [CACACA_negctrl_site173] | 9.57 ± 0.23
AAATGAAAGAACAGCACACATATATATTATATATAA [CACACA_site2002] | 9.885 ± 0.078
TTTTTTATGATTAACACACACACAAAAAAAAAAAAA [CACACA_site4130] | 9.99 ± 0.43
TCATGTAACCATTCATGTACTCAAAAAAAAAAAAAA [XGTACX_site1027] | 11.3 ± 1.1
TCTGTAAATATGTATACACACATATCTGATCAATAT [CACACA_site5743] | 10.2 ± 0.11
AACATATTTTTTCTTAAACACACACCGATATATATA [CACACA_site8919] | 10.2 ± 0.29
AATATATATTTCTAAGATAAAACCCAAGGATAAAAA [CACACA_negctrl_site735] | 10.1 ± 0.11
GCCCCCAAATTATGTGTGCACTTTATATTCCTGAGA [GTGCAC_site9474] | 11.1 ± 0.77
ATTGTGTGAACAAAATGTACATTTTCTCTACATTAA [XGTACX_site1333] | 10.9 ± 0.52
TGGCATATATATAAATGTACTTTCTTTCTATCTGTT [XGTACX_site8483] | 10.9 ± 0.54
TAATAAAGTATTTTGCGTACTTATTTTATTCTTCTA [XGTACX_site2095] | 11.4 ± 0.88
TATTTTATAATAGGCACACATATAAAAATATATATA [CACACA_site4127] | 10 ± 0.19
